# Experimental data reported in PubChem BioAssay AID651820 (National Center for Advancing Translational Sciences (NCATS), 2012).
# The whole screen tested about 340,000 compounds, of which about 12,000 (3.5%) were called active. The inconclusive results got no clear call from the source; some entries with a clear call stand among them for comparison. The call rests on the fitted dose curve; in most records, active means well fitted inhibition curve with a large enough effect; inconclusive means small, poorly fitted or top-dose-only effect, or another doubt; inactive means no such curve, though single readings can be large or run the other way. Potencies of inconclusive entries are left out as doubtful fits.
# Experiment: qHTS Assay for Inhibitors of Hepatitis C Virus (HCV)
# Conditions: Huh7.5.1 HCVcc-Cre (HCVcc is cell-culture hepatitis C virus) infection, luciferase reporter, 44 h; activity change, negative = inhibition: at 41.8 µM (top of the series) unless noted
# Method in brief: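 After 44 h co-culture of compound, cells and HCVcc-Cre (~0.5 moi), substrate is added for 15 min at room temperature and luciferase measured over 15 sec. Cells were seeded at 1,000/well and pre-cultured 4 h.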
# On the % scale 0 is the no-effect control and ±100 the full control effect; potency means the concentration at half of the fitted maximal effect; tags describe the fitted curve by direction and shape.
Structure (SMILES),Potency,"activity change, negative = inhibition"
COC(=O)C1=C(C)N(c2ccc(C)cc2)/C(=C/c2ccc(O)cc2)C1=O,"inconclusive [inhibitor, single point]",–
COc1ccc(N(C)S(=O)(=O)c2cccc(C(=O)NCC(c3cccs3)N(C)C)c2)cc1 (stereo not given),"inconclusive [inhibitor, partial curve]",–
CC(=O)OCCN(CCCn1c(-c2ccncc2)nc2ccccc21)c1nc(CN2CCCCC2)cs1,active: 2.51 µM,–
O=C(Nc1cccnc1)c1sc2cccc(F)c2c1Cl,"inconclusive [inhibitor, full curve]",–
COc1ccc(/C=N/NS(=O)(=O)c2ccccc2)cc1OS(=O)(=O)c1ccc(C)cc1,"inconclusive [inhibitor, partial curve]",–
Cc1cc(C)n(/N=C/c2cccs2)c(=O)c1C#N,–,inactive: 9.55%
CCCc1nn(C)c(C(=O)Nc2ccc(CC)cc2)c1Cl,–,inactive: 8.74%
Fc1ccc(-c2cc(-c3ccccc3)nc(-n3cccn3)n2)cc1,"inconclusive [inhibitor, partial curve]",–
N=c1c2c(-c3ccccc3)c(-c3ccccc3)oc2ncn1CCN1CCOCC1,"inconclusive [inhibitor, single point]",–
COCCNC(=O)NC(=O)COC(=O)c1ccc2[nH]c3c(c2c1)CCCC3,"inconclusive [inhibitor, full curve, poor fit]",–
CCCOc1ccc(NC(=O)CC2C(=O)N(CC)C(=S)N2CCNC(C)=O)cc1 (stereo not given),–,inactive: 9.68%
Cc1cccc(C)c1NC(=S)Nc1ccc(F)cc1,–,inactive: 4.58%
CC(=O)Nc1ccc(NC(=O)c2cc(-c3ccccc3)nc3ccccc23)cc1,"inconclusive [inhibitor, partial curve, poor fit]",–
Cc1nc(N2CCOCC2)nc(N2CCC(C)CC2)c1[N+](=O)[O-],"inconclusive [inhibitor, partial curve]",–
O=C(NNC(=O)c1ccccc1O)c1ccc(-c2ccc([N+](=O)[O-])cc2)o1,"inconclusive [inhibitor, partial curve]",–
CCCc1cnc(N2CCN(C(=O)c3ccc(F)cc3)CC2)nc1,"inconclusive [inhibitor, single point]",–
COc1ccc(NC(=O)COc2ccccc2F)cc1S(=O)(=O)N1CCCCC1,"inconclusive [inhibitor, partial curve]",–
COc1cc(OC)cc(-c2c(C#Cc3ccsc3)c3cc(-c4ccc(OC)nc4)ccc3n2C)c1,"inconclusive [inhibitor, single point]",–
O=C(NNC(=S)Nc1ccc(Cl)cc1Cl)c1ccncc1,–,inactive: 14.2%
CCc1nnc(NC(=O)C2CC(=O)N(Cc3ccco3)C2)s1 (stereo not given),–,inactive: -5.76%
Cc1ccc(C(=O)c2ccccc2C(=O)OCC(=O)Nc2ccc(SC(F)F)cc2)cc1,"inconclusive [inhibitor, single point]",–
O=C(Cc1cccc(NC(=O)C2CCN(C(=O)C3CCCC3)CC2)c1)Nc1cccc(C(=O)N2CCCC2)c1,–,inactive: -17%
O=C(Cc1cccc(NC(=O)C2CCCN(C(=O)C3CCCCC3)C2)c1)Nc1cccc(C(=O)N2CCCCC2)c1 (stereo not given),–,inactive: -19.6% [at 8.37 µM]
O=S(=O)(c1ccccc1)c1nnn2c1nc(NC1CCN(Cc3ccccc3)CC1)c1ccccc12,active: 8.91 µM,–

Structure (SMILES),Potency,"activity change, negative = inhibition"
CCCNC(=O)c1ccc(N2CCC3(CC2)CC(c2cccc(Br)c2)=NO3)c([N+](=O)[O-])c1,"inconclusive [inhibitor, single point]",–
COc1ccc(-c2nn(-c3ccccc3)cc2/C=N/NC(N)=S)cc1OC,active: 11.2 µM,–
Cc1cccc(NC(=O)/C(=C\c2ccco2)NC(=O)c2ccccc2)c1,"inconclusive [inhibitor, single point]",–
Fc1cccc(/C=N/Nc2ccccn2)c1,"inconclusive [inhibitor, single point]",–
Cc1ccc2c(c1)c1ncnc(N3CCc4ccccc4C3)c1n2C,"inconclusive [inhibitor, partial curve]",–
Cc1cc(NC(=O)CSC2=NS(=O)(=O)c3cc(F)ccc3N2)no1,–,inactive: 17.7%
COc1ccc(OC)c(/C=N/NC(=O)CNC(=O)c2ccc(S(=O)(=O)N3CCCC3)cc2)c1,–,inactive: 12.8%
CNc1nc(Nc2ccc(C(C)=O)cc2)nc(OC(C(F)(F)F)C(F)(F)F)n1,"inconclusive [inhibitor, partial curve, poor fit]",–
O=c1c2ccccc2nc(SCc2nnc(-c3ccccc3Br)o2)n1Cc1ccco1,active: 12.6 µM,–
O=C(Nc1cccc(C(=O)N2CCCC2)c1)C1CC1,"inconclusive [inhibitor, single point]",–
COc1ccc(NC(=O)c2cc(Br)ccc2Cl)c([N+](=O)[O-])c1,–,inactive: -3.38%
O=C1c2cccc3c([N+](=O)[O-])ccc(c23)C(=O)N1c1nccs1,"inconclusive [inhibitor, single point]",–
Cc1cc(/C=C2/NC(=O)N(Cc3ccccc3F)C2=O)c(C)n1C(C)C,"inconclusive [inhibitor, full curve, poor fit]",–
Cc1cccc(C)c1N=C1C(=O)Nc2ccccc21,"inconclusive [inhibitor, single point]",–
COc1ccc(OCCN2CCN(C(=O)c3ccc(OC(F)F)c(OC)c3)CC2)cc1,"inconclusive [inhibitor, single point]",–
COc1ccc(-c2c(-c3ccc(OC)c(F)c3)c3ccccc3n2C)cc1,"inconclusive [inhibitor, single point]",–
COc1ccc(NC(=S)NCc2ccc3c(c2)OCO3)cc1,–,inactive: -2.46%
Cc1ccc(/C=N/NC(=O)c2ccncc2)cc1,–,inactive: 8.14%
COCCCN(C(=O)c1cc2c(s1)CCCCC2)c1c(N)n(Cc2ccccc2)c(=O)[nH]c1=O,"inconclusive [inhibitor, single point]",–
Cc1ccc(NC(=O)c2nc(S(=O)(=O)Cc3ccccc3)ncc2Cl)cc1,"inconclusive [inhibitor, single point]",–
CCN(CC)CCOCCOc1ccc(Cl)c2ccccc12,"inconclusive [inhibitor, single point]",–
FC(F)(F)c1ccc2c(c1)C1C=CCC1C(c1ccncc1)N2 (stereo not given),"inconclusive [inhibitor, single point]",–
CC(C)c1ccc(C2c3[nH]c4ccccc4c3C[C@H]3C(=O)N(c4ccccc4C(=O)N4CCC[C@@H]4C(=O)O)C(=O)N23)cc1 (stereo not given in full),–,inactive: 0.839%
CS/C(=N\S(=O)(=O)c1ccc(Cl)cc1)c1ccccc1,–,inactive: -9.98%

Structure (SMILES),Potency,"activity change, negative = inhibition"
COc1ccccc1N1CCN(C(=O)c2ccc([N+](=O)[O-])s2)CC1,"inconclusive [inhibitor, single point]",–
Cc1cc(C)c2cc(C(c3nnnn3C3CCCC3)N3CCOCC3)c(=O)[nH]c2c1 (stereo not given),–,inactive: -9.27%
O=C(CCN1C(=O)/C(=C/c2ccccc2F)SC1=S)NCCCN1CCOCC1,"inconclusive [inhibitor, full curve, poor fit]",–
CCNc1ccccc(C(=O)/C=C/c2ccc3c(c2)OCO3)c1=O,–,inactive: 5.69%
Cc1ccccc1NC(=S)NCc1ccc(Cl)cc1,"inconclusive [inhibitor, single point]",–
O=C(Cc1cccc(C(F)(F)F)c1)NCC(=O)Nc1cc(Cl)ccc1Cl,"inconclusive [inhibitor, single point]",–
CCn1nc(C(=O)Nc2nc3ccc(C)cc3s2)c2ccccc2c1=O,active: 31.6 µM,–
O=C1COc2ccc(S(=O)(=O)N3CCN(c4ccccc4F)CC3)cc2N1,"inconclusive [inhibitor, single point]",–
Cc1ccc(C(=O)CCC(=O)N2CCN(c3ccccc3O)CC2)cc1,–,inconclusive: -35.4% [inhibitor]
CN(Cc1cccs1)C(=O)/C=C/c1ccccc1[N+](=O)[O-],–,inactive: 10.6%
CC(=O)Nc1ccc(S(=O)(=O)Nc2ccc3c(c2)OCO3)cc1,–,inactive: 1.3%
CS(=O)(=O)c1ccc(C(=O)OCc2nnc(-c3ccccc3)o2)cc1[N+](=O)[O-],"inconclusive [inhibitor, single point]",–
COc1ccccc1NC(=O)c1ccc(NC(=O)CSc2nnnn2C)cc1,"inconclusive [inhibitor, full curve, poor fit]",–
COc1ccc(Cl)cc1NC(=O)C(C)N1CCN(c2ccccn2)CC1 (stereo not given),"inconclusive [inhibitor, single point]",–
Cc1cc(NC(=O)c2ccc([N+](=O)[O-])cc2Cl)ccc1NC(=O)c1ccco1,active: 7.94 µM,–
COCCn1c(N)c(C(=S)NC(=O)c2cccs2)c(=O)[nH]c1=O,"inconclusive [inhibitor, single point]",–
O=C(NCCSCc1ccco1)Nc1ccccc1,–,inactive: 6.64%
COc1cc(C(=O)NCCCNc2nc3c(C)cc(C)cc3cc2C#N)cc(OC)c1OC,"inconclusive [inhibitor, partial curve]",–
COCCNS(=O)(=O)c1ccc(-c2ccc(C)cc2)cc1,"inconclusive [inhibitor, partial curve]",–
Cn1c(CC(=O)Nc2ccccc2F)nnc1SCC(=O)N1CCOCC1,–,inactive: 12.4%
Cc1c(C(=O)NCc2cccs2)oc2ccc(S(=O)(=O)N3CCOCC3)cc12,"inconclusive [inhibitor, partial curve]",–
Fc1ccccc1C1c2cccn2CCN1C(=S)Nc1ccc(Br)cc1 (stereo not given),"inconclusive [inhibitor, single point]",–
